# Experimental data published in PubChem BioAssay AID485344 (National Center for Advancing Translational Sciences (NCATS), 2010).
# Out of some 340,000 compounds screened, about 6,900 (2%) were called active. No stated cut-off is given here; in the data, active means inhibition above about 30%; inactive means below that, where a call was filed. The entries are a selection whose mix differs from that of the whole data set. The source gives no active or inactive call for entries shown without one.
# Target: D(2) dopamine receptor (Homo sapiens) (UniProt P14416)
# Sequence of UniProt P14416 (P14416 whole entry, looked up): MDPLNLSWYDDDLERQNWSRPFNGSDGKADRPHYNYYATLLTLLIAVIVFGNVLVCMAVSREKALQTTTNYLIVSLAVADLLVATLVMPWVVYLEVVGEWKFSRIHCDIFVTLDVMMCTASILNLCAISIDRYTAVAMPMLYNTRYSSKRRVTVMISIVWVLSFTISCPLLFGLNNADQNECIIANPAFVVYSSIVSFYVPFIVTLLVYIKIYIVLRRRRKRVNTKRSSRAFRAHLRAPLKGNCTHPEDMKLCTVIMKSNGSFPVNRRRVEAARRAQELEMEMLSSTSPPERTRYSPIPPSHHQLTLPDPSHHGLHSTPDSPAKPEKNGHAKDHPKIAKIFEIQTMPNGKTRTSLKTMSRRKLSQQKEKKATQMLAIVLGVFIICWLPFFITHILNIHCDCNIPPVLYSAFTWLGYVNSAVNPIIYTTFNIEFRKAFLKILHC
# Test: HTS Assay for Allosteric Antagonists of the Human D2 Dopamine Receptor: Primary Screen for Antagonists; further: 0% is about no effect
# Details: HEK293 TREx D2 cells, calcium flux, dopamine EC80; at 10 µM; stronger effect = higher value
# Summary of the method: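 Dopamine at EC80 is the agonist stimulus; test compounds precede it by 180 s. Calcium flux read kinetically in a force-coupled, inducible HEK293 T-REx D2 cell line.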
row,Compound,inhibition
1,COc1ccc(CN2CCN(c3ccccn3)CC2)cc1OCc1ccccc1,active: 87%
2,COc1ccc(C2C(C(=O)Nc3ccc(C)cc3C)=C(C)Nc3nc(SCc4cccc(C)c4)nn32)c(OC)c1 (stereo unspecified),-5.11%
3,N#CC(C#N)=C1C=C2C=C(N3CCOCC3)CCC2CC1 (stereo unspecified),active: 65.3%
4,NC(=O)c1nn2c(C(F)(F)F)cc(-c3ccc(Br)cc3)nc2c1Cl,15.6%
5,CSc1nc(=O)c2c(n1C)NC(=O)CC2c1cc(F)cc(F)c1 (stereo unspecified),-0.595%
6,Cc1ccc2nc(Cl)c3cc(C(=O)NCCCN(C)Cc4ccccc4)sc3c2c1,-3.26%
7,COc1ccccc1CNc1nc2c(S(=O)(=O)c3ccccc3)nnn2c2ccc(Cl)cc12,-2.9%
8,COc1ccc(C2C=C(c3ccc(Br)cc3)Nc3nnnn32)c(OC)c1 (stereo unspecified),21.2%
9,COc1ccc(Nc2cc(C(=O)NC3CCCC3)c3ccccc3n2)cc1,-22.6%
10,COC(=O)CCCCC(=O)OC,active: 36.5%
11,Cc1ccc(NC(=O)c2c(NC(=O)c3ccccc3Cl)sc3c2CCC3)cc1,2.78%
12,CN1CCN(C(=O)Cn2ncc3c4ccccc4n(Cc4ccc(Cl)cc4)c3c2=O)CC1,7.51%
13,Cc1cc(C)c(NC(=O)c2c(C)nn(-c3ccc(F)cc3)c2-n2cccc2)c(C)c1,0.221%
14,O=C(CSc1nccn1Cc1ccc(F)cc1)NCc1ccc(F)cc1,4.49%
15,CS(=O)(=O)N1CCc2cc(C(=O)N3CCN(c4ccccc4F)CC3)ccc21,5.31%
16,Cc1ccccc1NC(=O)Cn1nnc(C(=O)NCCc2ccccc2)c1N,9.14%
17,O=C(NC1CCCCC1)c1ccc(CSc2nc3ccncc3n2Cc2ccc(F)cc2)cc1,4.65%
18,CCc1nn2c(=O)c(S(=O)(=O)Nc3ccc(Br)cc3F)c(C)nc2s1,-5.82%
19,CCOC(=O)c1sc2ccccc2c1S(=O)(=O)N1CCN(c2cc(C)ccc2C)CC1,6.1%
20,CCNC(=O)c1cc2n(n1)CCCN(Cc1ccc(C)cc1)C2=O,7.93%
21,COc1ccc(CCNC(=O)c2cc3c(=O)oc4ccc(C)cc4c3s2)cc1OC,13.7%
22,COc1ccc(OCC(=O)Nc2ccc3nn(-c4ccc(OC)cc4)nc3c2)cc1,-6.06%
23,Cc1nn(C(=O)c2cccc(F)c2)c(C)c1S(=O)(=O)N1CCOCC1,-2.89%
24,O=C(C1CCN(c2ncnc3c2nc2n3CCCCC2)CC1)N1CCN(c2ccc(Cl)cc2)CC1,-2.57%

row,Compound,inhibition
1,COc1ccc(-c2cc(C(F)(F)F)n3nc(C(=O)Nc4cc(C)ccc4C)cc3n2)cc1,8.45%
2,Cc1ccc2c(c1)c1c3n2CCN(C(=O)c2ccc(C(F)(F)F)cc2)C3CCC1 (stereo unspecified),15.7%
3,CC1=C(C(=O)OCc2ccc(C)cc2)C(c2cccc(F)c2F)CC(=O)N1 (stereo unspecified),7.18%
4,CCCCN1CC(c2nc3ccccc3n2CCCCOc2ccc(C)cc2C)CC1=O (stereo unspecified),2.43%
5,O=C(NCCCc1nc2ccccc2n1Cc1cccc(Cl)c1)c1ccco1,1.3%
6,Cc1ccc(-n2ncc3c(NCCCN4CCOCC4)ncnc32)cc1Cl,-22.6%
7,Cc1cccc(C)c1NC(=O)c1csc2c1CCCC2,2.47%
8,COc1ccccc1NC(=O)C(=O)c1cc(C)n(-c2ccccc2F)c1C,-26.8%
9,CCc1ccc(NC(=O)c2cc(S(=O)(=O)N3CCCCCC3)ccc2F)cc1,13.7%
10,Cc1ccc(NC(=O)Nc2nnc(SCC(=O)Nc3ccc(F)cc3F)s2)cc1,18.8%
11,CC(=O)N1C(=O)C2(Nc3ccccc3N2)c2ccccc21,active: 34.2%
12,Cc1nc(N2CCCC2)c2c(C(=O)Nc3cccc(Cl)c3C)c(C)oc2n1,-2.29%
13,Cc1ccc(-n2ncc3c(NCCCc4ccccc4)ncnc32)cc1,-20.4%
14,CCCNC(=O)C1CCC(Cn2c(=O)c3sccc3n(Cc3ccccc3C)c2=O)CC1 (stereo unspecified),-13.3%
15,COc1ccc(Cl)cc1-n1nnc(-c2nc(-c3ccc4c(c3)OCO4)no2)c1C,-2.01%
16,COc1cc2[nH]c(=O)n(Cc3ccc(C(=O)NCc4ccccc4)cc3)c(=O)c2cc1OC,0.592%
17,COc1cc(Cl)c(C)cc1NC(=O)c1cc2ccc3cccnc3c2[nH]1,2.92%
18,O=C(c1cc(=O)c2cc(Cl)ccc2o1)N(Cc1ccccc1)C1CCS(=O)(=O)C1 (stereo unspecified),-26.7%
19,CC(=O)OCc1cnc(C)c2oc(=O)c(C(=O)Nc3cccc(F)c3)cc12,-12.5%
20,COc1ccccc1NC(=O)c1ccc2c(Cl)c3c(nc2c1)CCCC3,-3.01%
21,COc1ccc(-n2c(=O)c3c4c(sc3n(Cc3ccccc3)c2=O)CN(C(C)=O)CC4)cc1OC,10.2%
22,CC1=C(c2ccc(C)c(C)c2)S(=O)(=O)N=C1N1CCC(C(=O)NCCc2ccc(Cl)cc2)CC1,12.7%
23,Cc1ccc(C)c(NC(=O)Cn2cc(C(=O)C3CCCCC3)c3ccccc32)c1,8.15%
24,O=C(c1ccc2c(c1)N(Cc1cccc(Cl)c1)C(=O)c1ccccc1S2(=O)=O)N1CCCCC1,6.2%

row,Compound,inhibition
1,Cc1ccc2[nH]c3c(=O)n(CC(=O)N(C)c4cc(Cl)ccc4C)ncc3c2c1,9.37%
2,O=C(CN1CCCN(Cc2ccc(Cl)cc2)S1(=O)=O)Nc1ccccc1F,3.91%
3,COc1cccc(NC(=O)c2oc3ccccc3c2NC(=O)c2ccc(C(F)(F)F)cc2)c1,0.278%
4,COc1cccc2c1Oc1ncccc1N(C(=O)CCC(=O)NCc1ccc(N(C)C)cc1)C2,-5.03%
5,Cc1oc2ncn(CC(C)C)c(=O)c2c1C(=O)N1CCN(c2ccc(F)cc2)CC1,7.79%
6,COc1cccc(NC(=O)/C(C#N)=C\c2cn(Cc3ccc(C)cc3)c3ccccc23)c1,4.53%
7,O=C(c1ccc(C(F)(F)F)cc1)N1CCC(c2nc(-c3ccc(S(=O)(=O)N4CCCC4)cc3)no2)CC1,2.46%
8,COc1ccc(-c2oc3ncn4nc(-c5ccccc5Br)nc4c3c2-c2ccc(OC)cc2)cc1,-2.14%
9,COC(=O)c1ccc(Cl)cc1NC(=O)N1CCCn2nc(C)cc21,-0.245%
10,COc1cc(OC)c(NC(=O)CCCn2nc(C)c3sc4ccccc4c3c2=O)cc1Cl,10.6%
11,COc1nc(-c2ccc(C)cc2)ccc1-c1noc(-c2ccccc2Br)n1,7.91%
12,CCn1c(C)cc(C(=O)CSc2nnnn2C2CCCC2)c1C,active: 30.4%
13,CC(=O)Nc1nonc1-c1nnc(SCC(=O)Nc2cc(C)cc(C)c2)n1C,-3.14%
14,Cc1ccc(C)c(N2CCN(C(=O)CN3CCSc4ccc(S(=O)(=O)N(C)C)cc43)CC2)c1,-20.3%
15,O=c1c2cccnc2n(Cc2ccccc2F)c(=O)n1Cc1ccccc1Cl,-5.62%
16,CCOC(=O)c1ccc(NC(=O)CC2C(=O)N(c3cccc(OC)c3)C(=O)N2C2CCCCC2)cc1 (stereo unspecified),-6.78%
17,Cc1ccc(OCCn2cc(C(=O)C3CCCCC3)c3ccccc32)cc1,10.8%
18,CCN1CCN(c2cc(C)c3cc(NC(=O)c4cccc(C(F)(F)F)c4)ccc3n2)CC1,7.63%
19,CCOC(=O)c1c(N)n(-c2ccc(Cl)c(Cl)c2)c2nc3ccccc3nc12,-10.6%
20,COc1cccc(CSc2nc3n(n2)C(c2cccs2)C(C(=O)Nc2ccccc2C)=C(C)N3)c1 (stereo unspecified),18.6%
21,Cc1ccc(NC(=O)Cn2c(=O)n(-c3ccc(Cl)c(Cl)c3)c(=O)c3c(C)c(C)sc32)c(C)c1,-13.4%
22,O=S(=O)(NCc1nc2cccnc2n1Cc1ccc(F)cc1)c1ccc2c(c1)CCCC2,-24.8%
23,CCOC(=O)c1ccc(NC(=O)c2c(NCc3cccs3)sc3c2CCCCC3)cc1,2.08%
24,Cc1cc(NC(=O)Cn2c(=O)nc(-c3ccccc3F)c3cc(Cl)ccc32)ccc1Br,-1.87%

row,Compound,inhibition
1,O=S(=O)(NCCc1csc2nc(-c3ccc(F)cc3)nn12)c1ccc(Br)cc1,-8.74%
2,CCOC(=O)c1c(C)oc2nc(C)nc(N3CCN(c4ccc(C(C)=O)cc4)CC3)c12,1.11%
3,CC(C)(C)OC(=O)N1CCC(c2c(C(=O)NCc3ccc(F)cc3)cnn2-c2ccc(F)cc2)CC1,7.06%
4,COc1cccc(C(=O)N(Cc2sccc2C)C2CCS(=O)(=O)C2)c1 (stereo unspecified),3.88%
5,COc1ccc(C(=O)Nc2cc(-c3cccc(C)c3)nn2-c2ccccc2)cc1,3.26%
6,N/C(=N\OC(=O)c1ccc(OCC(F)(F)F)nc1)c1ccc(Cl)cc1,active: 30.3%
7,CCN(CC)CCNC(=O)c1sc2nc3n(c(=O)c2c1C)CCCCC3,-21.7%
8,COc1ccc2cc3cc(C(=O)N4CCN(c5ccc(C(C)=O)cc5)CC4)sc3nc2c1Cl,9.39%
9,Cc1ccc(-c2cn3c(n2)sc2cc(C(=O)NCCCN4CCCCC4)ccc23)cc1,-3.66%
10,O=C(CCSCc1cnn(-c2ccccc2)c1-n1cccc1)NCc1ccccc1F,-4%
11,CCOc1ccc(NC(=O)c2cc3c(-c4ccccc4F)nn(C)c3s2)cc1,-15.2%
12,C=Cc1ccc(Cn2c(C(=O)O)c(CNCc3cccs3)c3ccc(C)cc32)cc1,0.0819%
13,COc1ccccc1C(=O)Nc1c(C(=O)N(CCN(C)C)Cc2ccco2)oc2ccccc12,-7.32%
14,O=C1CC(c2ccncc2)c2cc3c(cc2N1)OCO3 (stereo unspecified),active: 37.2%
15,Cn1c(SCc2ccc(F)cc2)nc2c([nH]c3ccccc32)c1=O,8.58%
16,CCOC(=O)C1CCCN(C(=O)c2cn(CC)c3ccc(S(=O)(=O)N(C)C)cc3c2=O)C1 (stereo unspecified),active: 35.1%
17,Cc1ccc(S(=O)(=O)c2cn(C)c3cc(N4CCCCCC4)c(F)cc3c2=O)cc1,3.78%
18,Cc1ccccc1NC(=O)c1ccc2nc(Cc3ccccc3)oc2c1,-17.5%
19,CC(=O)c1ccc(NS(=O)(=O)c2cc(-c3cnc(C4CC4)o3)ccc2C)cc1,-2.19%
20,CSc1nc(C)cc(Nc2c(C)cc(C)cc2C)n1,-13.2%
21,COc1cccc(C(=O)Nc2ccc(Cl)c(-c3nc4ccccc4[nH]3)c2)c1,1.08%
22,CCc1ccc(OCCCSc2nc(-c3ccc(C(C)(C)C)cc3)nc3cc(=O)[nH]n23)cc1,3.31%
23,CC(=O)c1ccc(N2CCN(S(=O)(=O)c3ccc4c(c3)CC(C)N4C(=O)C3CCC3)CC2)cc1 (stereo unspecified),21.9%
24,COC(=O)c1ccc(NS(=O)(=O)c2ccc(-n3cccn3)cc2)cc1,-17.7%
